Several values for one entry are separate records, joined by “and”; a condition that tells them apart may be missing. Equal values may be shown once. Hit rate of the full screen: of about 48,000 compounds, about 1,200 (2.5%) were called active. Another 2% or so got no clear call; they are omitted.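 Rule for the calls: active = activation of at least 60% and not above a set upper limit (about 1 call in 100 departs from these limits); inconclusive = activation of 40% to 60%, or above that upper limit; inactive = activation under 40%.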 The list shows a part of the results.

This test deals with Probable G-protein coupled receptor 32 (Homo sapiens) (UniProt O75388). The test is described as follows: qHTS for Agonists of Human Resolvin D1 Receptor DRV1. Conditions: CHO-K1 GPR32 beta-arrestin PathHunter luminescence, 90 min; at 76.9 µM; stronger effect = higher value; zero percent set by DMSO-only wells. The gist of the method: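 PathHunter enzyme-fragment complementation, CHO-K1 GPR32 stable line; 2,500 cells/well, overnight attach; cpd 90 min 37 °C 5% CO2; detection reagent 1 h RT; chemiluminescence. DMSO = EC0.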
Sequence of UniProt O75388 (O75388 whole entry, looked up, the tested form may be a part): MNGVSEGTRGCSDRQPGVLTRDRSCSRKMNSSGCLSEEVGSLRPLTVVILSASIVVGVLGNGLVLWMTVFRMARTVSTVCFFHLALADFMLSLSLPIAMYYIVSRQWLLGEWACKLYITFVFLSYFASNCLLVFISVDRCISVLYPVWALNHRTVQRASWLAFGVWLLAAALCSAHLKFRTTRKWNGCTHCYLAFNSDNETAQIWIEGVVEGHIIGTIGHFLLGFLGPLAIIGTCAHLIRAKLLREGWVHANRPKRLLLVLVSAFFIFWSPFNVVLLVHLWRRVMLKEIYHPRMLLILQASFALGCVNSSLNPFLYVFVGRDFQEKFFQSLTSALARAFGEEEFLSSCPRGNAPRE
(Quantitative high-throughput screening tests each substance at several concentrations.)
For the compound `COc1ccc(NC(=O)C(CC(C)C)NS(=O)(=O)c2ccc3c(c2)oc(=O)n3C)cc1Cl` (configuration not stated), the activation is inactive: 24.1%.
In the case of `CCOC(=O)C1=C(CS(=O)(=O)c2ccc(C)c(C)c2)NC(=O)NC1c1ccccc1OCC` (configuration not stated) it was inactive: 2.96%; in that of `CCOc1ccc(NC(=O)Cn2c(=O)n(Cc3nc(-c4ccccc4)no3)c(=O)c3ccccc32)cc1`, inactive: -4.59%; in that of `O=C(Cn1c(=O)ccc2cc(S(=O)(=O)N3CCCC3)ccc21)NCc1ccc(F)cc1`, inactive: 14.3%.
In the case of `COc1ccc(N(CC(=O)N2CCN(c3cccc(OC)c3)CC2)S(=O)(=O)c2c(C)noc2C)cc1` it was inactive: -2.63%; in that of `COc1cc(OC)c(NC(=O)c2ccc3c(Cl)c4c(nc3c2)CCCC4)cc1Cl`, inactive: 15.1%; in that of `COc1ccc(CCNC(=O)CSCc2nc(-c3ccc(OC)c(OC)c3)oc2C)cc1OC`, inactive: -28.2%.
On to `Cn1c(-n2cccc2)c(-c2c(-c3ccc(F)cc3)[nH]c3c2c(=O)[nH]c(=O)n3C)c(=O)[nH]c1=O`, for which the activation was inactive: -14.7%.
`CC1CCCN(C(=O)Cn2c(=O)n(CC3CCC(C(=O)NC(C)C)CC3)c(=O)c3sccc32)C1` (configuration not stated): the activation was inactive: -8.88%.
For the compound `COCCNc1ccc(-c2nc(-c3cccc(C)c3)no2)cc1[N+](=O)[O-]`, the activation was inactive: 1.37%.
For `CN1C(=O)c2ccccc2Sc2ccc(NC(=O)COc3ccc(Cl)cc3)cc21`, the activation is inactive: 4.75%.
The value for `CN1C(C)(C)CCCC1(C)C` was inactive: 5.7%; that for `COc1ccc(-n2ncc3c2ncn2nc(-c4ccc(Cl)cc4Cl)nc32)cc1` was inactive: -17.7%; that for `COc1cccc(OC)c1Cn1nnc2c(=O)[nH]c(C3CCN(C(=O)c4ccccc4)CC3)nc21` was inactive: -28.3%.
Regarding `COc1cccc(CCNc2ncnc3c2nnn3C)c1`, the activation is inactive: 10.3%.
As for `CCCCOC(=O)c1ccc(NC(=O)/C(C#N)=C/c2ccc(-c3ccccc3)o2)cc1`, the activation was inactive: -14.9%.
For the compound `COc1cc2c(=O)n(CCC(=O)NCC3CCCO3)c(=O)n(CC(=O)Nc3c(C)cccc3C)c2cc1OC` (configuration not stated), the activation was inactive: 0.608%.
Regarding `O=C(CCCn1c(=O)c2ccccc2n(CC(=O)Nc2ccc(F)cc2F)c1=O)NCc1ccccc1Cl`, the activation is inactive: -5.55%.
The value for `O=C(NCc1ccc(F)cc1)c1cc2c(s1)-c1ccccc1SC2` was inactive: -5.95%; that for `COc1ccc(NC(=O)c2cc3c(=O)n(Cc4ccco4)ccc3nc2C)c(OC)c1` was inactive: -8.97%.
In the case of `COc1cc(-c2nnc(SCC(=O)NC(C)C)o2)cc(OC)c1OC` it was inactive: -6.3%; in that of `CCOc1ccc(CCNC(=O)C2Cc3ccccc3N2C(=O)CC)cc1OCC` (configuration not stated), inactive: -20.4%.
On to `CC(=O)c1ccc(NC(=O)CSc2ccc3nc(-c4ccccc4)cn3n2)cc1`, for which the activation was inactive: -0.489%.
On to `Cc1ccc(-c2cc(C(=O)N3CCN(S(=O)(=O)c4ccc(Br)s4)CC3)[nH]n2)c(C)c1`, for which the activation is inactive: -18.1%.
As for `CN(C)c1ccc(CNC(=O)C(Cc2ccccc2)NS(=O)(=O)c2ccc3c(c2)oc(=O)n3C)cc1` (configuration not stated), the activation was active: 94.3%.
The value for `Cc1ccc(N(CC(=O)Nc2ccc(Br)c(C)c2)S(=O)(=O)c2cccs2)cc1` was inactive: -1.55%.
The value for `CCc1ccc(CNC(=O)Cc2c(C(=O)O)c(C)cn2C)cc1` was inactive: 7.27%; that for `CCc1nnc(SCc2nc(-c3ccccc3)oc2C)c2cc3sccc3n12` was inactive: -5.86%; that for `COc1ccc(-c2cn3nc(N4CCC(C(=O)Nc5cc(Cl)ccc5OC)CC4)sc3n2)cc1` was inactive: -6.82%.
As for `CC(C)(C)OC(=O)N1CCC(c2c(C(=O)N3CCN(c4ncccn4)CC3)cnn2-c2ccc(F)cc2F)CC1`, the activation was inactive: -8.95%.
For `Cc1ccc(C)c(NC(=O)Cn2c(=O)n(Cc3cccs3)c(=O)c3cccnc32)c1`, the activation is inactive: -34.4%.
As for `Nc1c(C(=O)Nc2ccc(Cl)cc2F)sc2nc(-c3cccs3)ccc12`, the activation was inactive: -10.5%.
For the compound `COc1ccc(-c2nc(SCC(=O)N3CCC(C)CC3)n[nH]2)cc1`, the activation is inactive: -4.51%.
Take `COc1ccc(OC)c(NC(=O)C(CCSC)NS(=O)(=O)c2cccs2)c1` (configuration not stated): the activation was inactive: -9.79%.
Take `CCOC(=O)c1c(S(=O)(=O)NCC(=O)NCc2ccc(C)cc2)c(C)n(C)c1C`: the activation is inactive: 1.05%.
In the case of `Cc1ccccc1C(=O)Nc1ccc2nc(SCCOc3ccccc3)sc2c1` it was inactive: -6.95%; in that of `Fc1ccc(CNc2cc(-c3ccccc3)nc3nncn23)cc1`, inactive: 3.24%.
`COc1ccc(C(=O)Nc2ccc(C(=O)OCc3cc(=O)n4nc(C(C)C)sc4n3)cc2)cc1`: the activation is inactive: -13.3%.
The value for `Cc1ccc(Cl)cc1NC(=O)/C(C#N)=C\c1cn(Cc2ccc(F)cc2)c2ccccc12` was inactive: 7.85%; that for `C[N+](C)(C)CCCCCC[N+](C)(C)C` was inactive: -0.777% and inactive: 5.6% and inactive: 3.82%.
Turning to `CC(=O)c1cccc(NC(=O)Cn2c(C)c3cnn(-c4ccccc4)c(=O)c3c2C)c1`, the activation was inactive: 3.74%.
On to `Cc1cccc(C(=O)N(Cc2nc(-c3ccc(Cl)cc3)no2)C(C)C)c1`, for which the activation was inactive: -13.5%.
In the case of `Cc1ccc2c(CNC3CCC(C)CC3)c(C(=O)O)n(Cc3cccc(F)c3)c2c1` (configuration not stated), the activation is inactive: 0.401%.
`CCN(CC)CCNC(=O)c1ccc2c(c1)N(Cc1ccccc1)C(=O)c1ccccc1S2=O` (configuration not stated): the activation was inactive: -14.1%.
`COc1ccc(-n2c(=O)c3sc4ccccc4c3n(Cc3ccccc3)c2=O)cc1`: the activation was inactive: -4.64%.
On to `CCSc1nc(=O)c2c(n1C)NC(=O)CC2c1ccc(O)cc1OC` (configuration not stated), for which the activation is inactive: -8.54%.
Consider `CCc1ccc(OCC(=O)NCC(c2ccc(OC)cc2)N2CCOCC2)cc1` (configuration not stated), for which the activation is inactive: -16.6%.
For the compound `Cc1cccc(C)c1NC(=O)CN(C)S(=O)(=O)c1ccc2c(c1)n(C)c(=O)c(=O)n2C`, the activation was inactive: -22.4%.
In the case of `COc1ccc(C(=O)Nc2ccc3nc(SCC(=O)N4CCOCC4)sc3c2)cc1` it was inactive: -0.0952%; in that of `COC(=O)c1ccc(OC)c(Cn2c(=O)n(-c3ccc(C)cc3)c(=O)c3c2cnn3C)c1`, inactive: -11.3%.
Take `COc1ccc(C2CC(=O)N(CC(=O)Nc3ccc(C(F)(F)F)cc3)c3ccccc3S2)cc1` (configuration not stated): the activation was inactive: -7.11%.
On to `COc1cc(NC(=O)c2cc3nc(-c4ccccc4)cc(-c4ccccc4)n3n2)c(OC)cc1Cl`, for which the activation is inactive: -0.0275%.
Turning to `COc1cc2c(cc1OC)C(c1ccc(F)cc1)N(c1ccc(F)cc1)C(=O)C2` (configuration not stated), the activation was inactive: -9.51%.
Take `CC1CCN(c2nc3ccc(C(=O)NCc4ccc(Cl)cc4)cc3s2)CC1`: the activation was inactive: -19.2%.
Consider `O=C(Cn1c(=O)nc(-c2ccccc2)c2cc(Cl)ccc21)NCCCc1ccccc1`, for which the activation is active: 94.2%.
In the case of `CCc1nn(CC(=O)NC2CC2)c(=O)c2cc3ccccc3n12` it was inactive: -2.77%; in that of `CCCCCC[C@@H]([C@@H](C)O)n1cnc2c(N)ncnc21`, inactive: 10.6%; in that of `Cn1cc(C(=O)NCc2ccccc2)c(=O)c2cc(S(=O)(=O)N3CCCCCC3)ccc21`, inactive: -0.454%.
Consider `COc1cccc(CNC(=O)c2c3c(nc4ccccc24)C(=O)N(C2CCCCC2)C3)c1`, for which the activation is inactive: -11.7%.
For `Cc1ccc(C)c(CSc2nc3ccncc3n2Cc2nc(-c3ccccc3Cl)oc2C)c1`, the activation was inactive: -33.9%.
For the compound `Cc1ccccc1Oc1nc2c(c(=O)n(C)c(=O)n2C)n1Cc1ccc(Br)cc1`, the activation was inactive: 11.6%.
In the case of `O=C(Nc1ccc(OC(F)(F)F)cc1)NC1COc2ccccc2C1` (configuration not stated) it was inactive: 6.98%; in that of `CCCCc1ccc(Nc2ncnc3c2cnn3-c2ccc(C)cc2)cc1`, inactive: 4.63%.
For the compound `CCC1CCCCN1C(=O)Cn1c(=O)n(CC2CCC(C(=O)NC)CC2)c(=O)c2sccc21` (configuration not stated), the activation was inactive: -17.1%.
As to `CC(NC(=O)CSc1n[nH]c(-c2ccccc2)n1)c1nc2ccccc2n1C` (configuration not stated), the activation is inactive: -2.33%.
On to `COc1cc(OC)c(NC(=O)c2cc(S(=O)(=O)N3CCCC3)cn2C)cc1Cl`, for which the activation was inactive: -8.43%.
For the compound `Cc1ccc(S(=O)Cc2nc(-c3ccc(C(=O)NC(C)c4ccccc4)cc3)oc2C)cc1` (configuration not stated), the activation was inactive: -7.15%.
Regarding `COc1ccc(N2CCN(Cc3nc4c(c(=O)[nH]c(=O)n4C)n3Cc3ccccc3)CC2)cc1`, the activation is inactive: -21.1%.
The value for `Cn1c(=O)c2sccc2n2c(CCC(=O)NCc3ccccc3)nnc12` was inactive: -7.43%; that for `COc1ccc(Cl)cc1S(=O)(=O)Nc1cccc(-c2ccc(N3CCOCC3)nn2)c1` was inactive: 12%.
Regarding `COC(=O)c1ccc(C(=O)OC)c(NC(=O)c2c(-c3ccccc3)c(-c3ccccc3)nn(C)c2=O)c1`, the activation is inactive: -37.3%.
For the compound `Cc1ccc2c(c1)nc(SCC(O)c1ccc(Br)cc1)n2C` (configuration not stated), the activation is inactive: -16.6%.
The value for `COc1cc(CNCCSc2nnnn2C)ccc1OCc1c(F)cccc1Cl` was inactive: 14.1%; that for `CCOC(=O)c1[nH]c(C)c(C(=O)NCc2ccc(F)cc2)c1C` was inactive: 11.4%; that for `Cc1cccc(-c2nnc(SCCC(=O)O)o2)c1` was inactive: 34.8%.
With `COc1ccc(N2CCN(c3oc(/C=C/c4cccc(OC)c4)nc3C#N)CC2)cc1`, the activation was inactive: -50.5%.
Consider `CCc1ccc(CNC(=O)C2CCN(c3nnc(-n4c(C)ccc4C)s3)CC2)cc1`, for which the activation was inactive: -21.2%.
As to `Cc1cccc(NC(=O)CN2C(=O)CCc3ccccc32)c1C`, the activation was inactive: -7.28%.
Regarding `CCOc1ccc(CCNC(=O)c2cnc3c(-c4ccccc4)c(C)nn3c2C)cc1OCC`, the activation is inactive: -5.23%.
As to `COc1ccccc1CNC(=O)C(C)n1c(=O)cc(C(F)(F)F)c2c(C)nn(C)c21` (configuration not stated), the activation was inactive: -0.0193%.
As to `O=[N+]([O-])c1ccc(C(c2sc3nc(-c4ccco4)nn3c2O)N2CCC3(CC2)OCCO3)cc1` (configuration not stated), the activation was inactive: -3.15%.
The value for `CC(C)c1ccc(OCC(=O)Nc2cc(-c3nc4ncccc4o3)ccc2Cl)cc1` was inactive: 27.6%.

(Values after PubChem BioAssay AID1346428 (National Center for Advancing Translational Sciences (NCATS), 2018).)
